# Data reported in paper PMC4336329 (PLoS ONE, 2015).
# Screen size: about 310,000 compounds; about 2,200 (0.71%) showed an effect of 50% or more. Effects have a minus sign here. Some of the results follow.
# Target: human ether-à-go-go-related gene (hERG) potassium channel (human, UniProt Q12809)
# Experiment: primary screen, population patch clamp on CHO cells stably expressing hERG
# human ether-à-go-go-related gene (hERG) potassium channel, sequence (Q12809 whole entry, looked up): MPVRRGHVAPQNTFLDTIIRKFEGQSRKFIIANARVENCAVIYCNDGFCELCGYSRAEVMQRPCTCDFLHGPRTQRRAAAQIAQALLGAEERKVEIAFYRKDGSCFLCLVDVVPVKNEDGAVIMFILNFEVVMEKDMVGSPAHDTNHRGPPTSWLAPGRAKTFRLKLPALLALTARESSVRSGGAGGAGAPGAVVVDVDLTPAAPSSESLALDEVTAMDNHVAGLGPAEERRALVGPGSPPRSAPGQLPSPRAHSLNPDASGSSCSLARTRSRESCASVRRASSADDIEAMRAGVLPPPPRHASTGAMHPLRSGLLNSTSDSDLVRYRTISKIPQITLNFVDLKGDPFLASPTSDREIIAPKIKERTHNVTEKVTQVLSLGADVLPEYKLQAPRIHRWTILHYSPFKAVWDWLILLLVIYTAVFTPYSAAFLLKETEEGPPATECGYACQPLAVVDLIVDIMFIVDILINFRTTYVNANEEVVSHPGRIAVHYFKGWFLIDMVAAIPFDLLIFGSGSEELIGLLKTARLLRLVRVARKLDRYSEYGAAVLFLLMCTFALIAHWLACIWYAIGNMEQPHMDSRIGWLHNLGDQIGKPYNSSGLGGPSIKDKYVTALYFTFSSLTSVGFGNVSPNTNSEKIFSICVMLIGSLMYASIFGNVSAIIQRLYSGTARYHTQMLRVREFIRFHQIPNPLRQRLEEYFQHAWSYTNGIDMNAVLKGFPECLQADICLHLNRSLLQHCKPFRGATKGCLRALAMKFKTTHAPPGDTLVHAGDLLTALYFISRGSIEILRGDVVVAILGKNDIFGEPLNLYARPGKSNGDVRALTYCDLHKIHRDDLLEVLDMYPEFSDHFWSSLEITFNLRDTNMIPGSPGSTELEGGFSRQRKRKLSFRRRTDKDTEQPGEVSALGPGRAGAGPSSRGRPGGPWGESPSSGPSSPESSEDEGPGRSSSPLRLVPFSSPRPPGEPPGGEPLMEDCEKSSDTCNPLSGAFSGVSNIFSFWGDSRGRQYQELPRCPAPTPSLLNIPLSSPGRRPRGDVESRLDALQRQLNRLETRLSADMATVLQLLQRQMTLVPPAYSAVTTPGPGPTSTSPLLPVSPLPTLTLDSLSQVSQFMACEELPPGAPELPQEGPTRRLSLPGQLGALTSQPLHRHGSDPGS
row,SMILES,"hERG current change (%, negative = inhibition) at 1uM"
1,Cc1ccccc1N(C(=O)Cn1nnc(-c2ccc(F)cc2)n1)C(C(=O)NC(C)(C)C)c1ccncc1 (stereo not drawn),5.87%
2,CN(C)Cc1ccccc1Sc1ccc2c(c1)CCCC2.O=C(O)C(=O)O,8.85%
3,COc1ccccc1N1CCN(Cc2nc3ccsc3c(=O)[nH]2)CC1,10.4%
4,Cc1ccnc(NC(=O)C2CCC(CNc3c(N4CCCC4)c(=O)c3=O)CC2)c1 (stereo not drawn),-2.38%
5,COc1ccc(NC(=O)c2ccc(COCC(F)(F)C(F)F)cc2)cc1OC,5.57%
6,Cc1cccc(NC(=O)NNC(=O)c2ccc3ccccc3c2)c1,19.2%
7,CCOC(=O)c1sc2nc3c(cc2c1N)COC(C(C)C)C3 (stereo not drawn),5.75%
8,Cc1c(NC(=O)CSCc2ccco2)c(=O)n(-c2ccccc2)n1C,5.21%
9,CC(C)Cc1cc(CN2CCC(CO)(Cc3cccc(C(F)(F)F)c3)CC2)[nH]n1,-66%
10,O=C(N/N=C/c1c(O)ccc2ccccc12)c1ccc(CO)nc1,12.8%
11,COc1ccc(C(=O)CSc2cc(C)nc3nc(C)nn23)cc1OC,6.41%
12,COC(=O)Nc1ccc(S(=O)(=O)N(C)C)cc1,3.02%
13,Cc1ccc(/C=N/N(C)S(=O)(=O)c2ccc(C)cc2)cc1,3.19%
14,CC(=O)c1ccc(N2CCN(C(=S)Nc3cc(C)ccc3C)CC2)cc1,3.76%
15,O=C(CC1SC(N2CCCC2)=NC1=O)Nc1ccc(C(=O)Nc2ccccc2)cc1 (stereo not drawn),13.9%
16,COc1cccc(C(=O)NNC(=O)c2ccc3ccccc3c2O)c1,11.3%
17,COC(=O)C1=C(c2cc3ccccc3s2)C[C@@H]2CC[C@H]1N2C(=O)N1CCCCC1,2.41%
18,Cc1ccc(C)c(NCc2ccccc2CO)c1,-2.79%
19,Cc1cc(=O)n2[nH]c(NCc3c(F)cccc3Cl)nc2n1,15%
20,COc1ccccc1C(=O)N1CCN(Cc2nc3cc([N+](=O)[O-])ccc3n2C)CC1,-16.4%
21,COc1ccc(CNC(=O)CSc2nc3ccc(C)cc3[nH]2)cc1OC,16.6%

row,SMILES,"hERG current change (%, negative = inhibition) at 1uM"
1,CCc1nn(CCCC(=O)NCc2ccccc2Br)c(=O)c2cc3occc3n12,-10.5%
2,CCc1ccccc1OCC(=O)Nc1nc(-c2cccnc2)cs1,10.6%
3,CC(Oc1ccccc1)C(=O)N1CCN=C1SCc1cccc(F)c1 (stereo not drawn),1.87%
4,CCOC(=O)C1CCN(C(=O)Nc2cccc(OC)c2)CC1,14.4%
5,COCCn1cnnc1SCC(=O)Nc1cccc(S(=O)(=O)N2CCCCCC2)c1,-16.8%
6,CC(=O)N1CCN(c2ccccc2NC(=O)COc2cc(C)cc(C)c2)CC1,-18.3%
7,COCCCNC(=O)C1=CCN(S(=O)(=O)c2ccc(OC)cc2)CC1,10.6%
8,CC(C)c1ccc(N2C(=NC(=O)C3CCCO3)SC3CS(=O)(=O)CC32)cc1 (stereo not drawn),14.4%
9,Cl.Nc1nc(N2CCN(C(=O)c3ccco3)CC2)nc2ccc(Br)cc12,-5.82%
10,O=C(NC(Cc1ccccc1)C(=O)O)/C(=C\c1ccccc1F)NC(=O)c1ccccc1 (stereo not drawn),19.2%
11,CC(C)CN(C(=O)CN1CCN(S(=O)(=O)c2ccccc2)CC1)c1c(N)n(CC(C)C)c(=O)[nH]c1=O,-2.18%
12,CCOC(=O)N1CCN=C1SCc1ccc(C(F)(F)F)cc1,8.48%
13,CCSC1=NN2CCS(=O)(=O)N=C2S1,23%
14,Cn1c(=O)oc2cc(S(=O)(=O)N3CCC(C(=O)N4CCc5ccccc5C4)CC3)ccc21,17.5%
15,O=S(=O)(NCCOCC(F)(F)F)c1ccc2oc3ccccc3c2c1,6.44%
16,Cc1cc(C)cc(NC(=S)N=Nc2c(O)n(C)c3ccc(S(=O)(=O)N4CCOCC4)cc23)c1,0.994%
17,COc1ccc(NC(=O)COc2nc(N(C)C)nc(N(C)C)n2)cc1,8.43%
18,O=C(NCCCN1CCOCC1)c1ccc(S(=O)(=O)Nc2cccc(C(F)(F)F)c2)cc1,4.95%
19,Cc1ccc(C(=O)Nc2nc(-c3ccc(F)cc3)cs2)o1,0.92%
20,O=C1CCCCC1Sc1nnc(Cc2cccs2)n1CCc1ccccc1 (stereo not drawn),5.25%
21,CCOC(=O)c1c(C)[nH]c(C(=O)N2CCCC(C(=O)c3cccc(OC)c3)C2)c1C (stereo not drawn),2.58%
